According to PubChem BioAssay AID504832 (National Center for Advancing Translational Sciences (NCATS), 2011):
The whole screen tested about 310,000 compounds, of which about 18,000 (5.8%) were called active. Inconclusive results, whose numbers are uncertain, are shown with a selection of clear calls. Calls come from the whole dose curve; as a rule, active = well fitted inhibition curve with a large enough effect; inconclusive = small, poorly fitted or top-dose-only effect, or another doubt; inactive = no such curve, though single readings can be large or run the other way. No potency is given beside an inconclusive call; the fits are too rough.
Potency is the fitted concentration of half-maximal effect; tags give direction and shape of the fitted curve.

Assay: Primary qHTS for delayed death inhibitors of the malarial parasite plastid, 48 hour incubation
Settings: P. falciparum luciferase growth in erythrocytes; series mostly up to 28.7 µM
Method in brief: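 Luminescence readout; reporter = integrated firefly luciferase in P. falciparum. RBC culture at 2% hematocrit, 0.1% parasitemia final, 37 C/5% CO2; decreased signal taken as growth inhibition.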
For CC(C)c1ccc(NC(=O)COC(=O)C2CCCCC2)cc1, the Potency was “inactive”. With COc1cccc(-c2nc(N3CCN(c4ccccc4)CC3)c3ccccc3n2)c1O the Potency was inconclusive [inhibitor, partial curve, poor fit]. In the case of Cc1cc(O)c2c(c1)OC1(C)CCC3C(C)(C)CCCC34COC2C14 (stereo not given), the Potency was inconclusive [inhibitor, single point]. With O=C(Cc1ccccc1)N/N=C/c1cc(Br)c(Br)o1 the Potency was “inactive”. In the case of CC(=O)Nc1cccc(N(C)S(C)(=O)=O)c1, the Potency was “inactive”. For CCCCCCOC(=O)Cc1c(C)nc(-c2ccccc2)[nH]c1=O, the Potency was active: 2.33 µM. With COC(=O)c1cc(NC(=O)C2COc3ccccc3O2)cc(C(=O)OC)c1 (stereo not given) the Potency was inconclusive [inhibitor, single point]. With CC1CN(c2ccc([N+](=O)[O-])c(NCCOc3ccc(Cl)cc3)c2)CC(C)N1 (stereo not given) the Potency was inconclusive [inhibitor, full curve]. With COc1ccc(C2C=C(c3ccc(Cl)cc3)Nc3nc(NC(C)=O)nn32)cc1 (stereo not given) the Potency was inconclusive [inhibitor, full curve, poor fit]. For COCCCNC(=O)c1ccc(Cn2c(=O)c3ccccc3n(CC(=O)NCCc3ccc(OC)c(OC)c3)c2=O)cc1, the Potency was inconclusive [inhibitor, full curve, poor fit]. With COc1cc(OC)nc(-n2ncc(Br)c(Br)c2=O)n1 the Potency was inconclusive [inhibitor, partial curve]. For Clc1ccc2c(c1)c1cc(Cl)ccc1n2CN1CCOCC1, the Potency was inconclusive [inhibitor, partial curve, poor fit]. With Cc1ccc(C(=O)O)c(C(=O)Nc2nc(C)cs2)c1 the Potency was inconclusive [inhibitor, partial curve, poor fit]. In the case of Cc1ccc(-c2nnn(CC(=O)N(c3ccc4c(c3)OCCO4)C(C(=O)NCC3CCCO3)c3ccc(F)cc3)n2)o1 (stereo not given), the Potency was inconclusive [inhibitor, partial curve, poor fit]. For CCOC(=O)c1c(NC(=O)c2ccc(Cl)s2)sc(C)c1C, the Potency was “inactive”. For Cn1[nH]c(-c2ccccc2)c(/C=N/O)c1=O, the Potency was inconclusive [inhibitor, single point]. In the case of Cc1ccc(C(=O)N2CCC(Cc3ccccc3)CC2)cc1S(=O)(=O)N1CCOCC1, the Potency was inconclusive [inhibitor, single point]. With CCN(CC)C(=O)CCCc1c[nH]c2ccccc12 the Potency was “inactive”. For CCOC(=O)CN1C(=O)C(Sc2n[nH]c(-c3cccc(C)c3)n2)CCc2ccccc21 (stereo not given), the Potency was active: 13.1 µM. With O=C(NC(C(=O)N/N=C/c1ccncc1)c1n[nH]c(=O)c2ccccc12)c1ccccc1 (stereo not given) the Potency was “inactive”. For O=C(N/N=C/c1ccc(O)cc1)c1ccncc1, the Potency was “inactive”. In the case of O=C(c1cc2cc(Br)ccc2[nH]1)N1CCc2ccccc21, the Potency was inconclusive [inhibitor, full curve, poor fit]. With C=C(C)COc1ccc(-c2[nH]ncc2Oc2cccc(OC)c2)c(O)c1 the Potency was active: 9.28 µM. In the case of COc1ccc(/C=C/C(=O)Nc2ccc(-n3nncc3-c3ccc(OC)c(OC)c3)cc2)cc1OC, the Potency was inconclusive [inhibitor, partial curve, poor fit]. In the case of CCC1CCCCN1C(=S)NC(=O)c1cccc([N+](=O)[O-])c1 (stereo not given), the Potency was inconclusive [inhibitor, partial curve, poor fit]. With CSc1nnc(SCC(=O)Nc2ccc3[nH]c(=O)[nH]c3c2)s1 the Potency was “inactive”. In the case of CCNC(=O)CCn1nc(-c2ccc(Cl)cc2)c2ccccc2c1=O, the Potency was inconclusive [inhibitor, single point]. With O=Cc1cn(-c2ccccc2)nc1-c1ccc2c(c1)OCCO2 the Potency was “inactive”. In the case of O=[N+]([O-])c1ccc(N2CCN(c3ccc(F)cc3)CC2)cn1, the Potency was “inactive”. With Cc1csc(NC(=O)c2cccn2C)n1 the Potency was “inactive”. For Cc1cc(NC(=O)CSc2ncn(-c3ccccc3)n2)no1, the Potency was inconclusive [inhibitor, full curve, poor fit]. For CCCCCC(=O)Nc1cccc(C2=NOC3(C2)C[C@H](C(N)=O)N(C(=O)CCCCC)C3)c1 (stereo not given in full), the Potency was inconclusive [inhibitor, single point]. With CC(C)(C)c1ccc(C2CC2C(=O)N/N=C\c2ccc[nH]2)cc1 (stereo not given) the Potency was inconclusive [inhibitor, single point]. In the case of O=C(NCc1ccco1)c1cc(-c2cccc(Cl)c2)on1, the Potency was “inactive”. With Cc1ccc(C=C2C(=O)c3ccccc3C2=O)o1 the Potency was inconclusive [inhibitor, partial curve, poor fit]. In the case of O=S(=O)(c1ccc(F)cc1)c1nc(-c2ccco2)oc1Nc1ccc(F)cc1, the Potency was inconclusive [inhibitor, single point]. For C=C(C)COc1ccc(-c2[nH]ncc2-c2ccccc2)c(O)c1, the Potency was active: 10.4 µM. For O=C(CN1CCc2ccccc2C1)c1cccs1, the Potency was inconclusive [inhibitor, single point]. With Oc1c(CN2CCCC(C(F)(F)F)C2)cc(Cl)c2ccccc12 (stereo not given) the Potency was inconclusive [inhibitor, full curve, poor fit]. In the case of CCCS(=O)(=O)N1CCCC(C(=O)NCCCN2CCN(c3ccc(F)cc3)CC2)C1 (stereo not given), the Potency was “inactive”. In the case of Cc1cc(NC(=O)CSc2nc3ccsc3c(=O)n2CCCC(=O)NCCc2ccccc2)no1, the Potency was inconclusive [inhibitor, single point]. For COc1ccc(NS(=O)(=O)N2CCOCC2)cc1, the Potency was inconclusive [inhibitor, partial curve, poor fit]. With COc1ccc(C2=NN(C(=O)CSc3nc4ccccc4s3)C(c3ccc(F)cc3)C2)cc1 (stereo not given) the Potency was inconclusive [inhibitor, partial curve, poor fit]. With O=C(NCC1CCCO1)c1cc(C(=O)C2CCCCC2)c[nH]1 (stereo not given) the Potency was inconclusive [inhibitor, partial curve, poor fit]. For O=C(Nc1ccn(Cc2c(F)c(F)cc(F)c2F)n1)c1ccc(COc2cc(Cl)ccc2Cl)o1, the Potency was inconclusive [inhibitor, single point]. For Cc1cc(-c2nn(-c3ccccc3F)cc2CN2CCN(c3ccncc3)CC2)c(C)s1, the Potency was active: 4.15 µM. With CCOC(=O)C1CCN(c2cc3c(cc2NC(=O)c2ccc(F)cc2)n(C)c(=O)n3C)CC1 the Potency was active: 11.7 µM. With CO/N=C/c1ccc(N2CCN(C(=O)c3ccc(C)cc3)CC2)c([N+](=O)[O-])c1 the Potency was inconclusive [inhibitor, single point]. In the case of CCOc1ccc(OCC)c(-c2c(=O)n(OCc3ccccc3Br)c3ccccc3[n+]2[O-])c1, the Potency was inconclusive [inhibitor, single point]. For Cc1nc(NC(=O)c2ccc(F)cc2)sc1C(=O)Nc1ccc2c(c1)CCC2, the Potency was “inactive”. In the case of NC(=O)c1nsc(C(=O)N(Cc2ccco2)C(C(=O)NC2CCCC2)c2ccc(O)cc2)c1N (stereo not given), the Potency was inconclusive [inhibitor, partial curve, poor fit]. With COc1ccc(C(=O)N2CCN(c3ccccn3)CC2)cc1[N+](=O)[O-] the Potency was “inactive”. With Cc1ccc(-c2nnc(N3CCN(C(=O)CN4CCOCC4)CC3)c3ccccc23)cc1 the Potency was inconclusive [inhibitor, partial curve]. For CN=C1SC(CC(=O)Nc2ccc(F)cc2F)C(=O)N1/N=C/c1ccc(OC(F)F)c(OC)c1 (stereo not given), the Potency was “inactive”. For Cc1ccc(-c2nc3ccccc3c(=O)n2Cc2ccccc2)cc1, the Potency was “inactive”. For CCc1ccc(NC(=O)c2nc(S(=O)(=O)Cc3ccccc3)ncc2Cl)cc1, the Potency was “inactive”. For NC1=NC(c2cn[nH]c2-c2cccc(F)c2)n2c(nc3ccccc32)N1 (stereo not given), the Potency was inconclusive [inhibitor, single point]. For COC(=O)c1ccc(C(=O)OC)c(NC(=O)CN(c2ccccc2)S(=O)(=O)N(C)C)c1, the Potency was inconclusive [inhibitor, single point]. With O=C(Nc1nc(-c2nc3ccccc3s2)cs1)C1CC1 the Potency was “inactive”. With CCOC(=O)c1[nH]c(C)c(C(=O)N2CCN(c3ccc(F)cc3)CC2)c1C the Potency was inconclusive [inhibitor, single point]. In the case of O=C(CNC1CCCCC1)Nc1ccc(S(=O)(=O)N2CCCCC2)cc1, the Potency was inconclusive [inhibitor, single point]. In the case of COCCN(C(=O)CCN1C(=O)C2CC=CCC2C1=O)c1c(N)n(CC(C)C)c(=O)[nH]c1=O (stereo not given), the Potency was “inactive”. For Cc1ccc(CNC(=O)C2CCCN2C(=O)Nc2ccc(F)cc2)cc1 (stereo not given), the Potency was “inactive”. With Cc1ccc(C(=O)c2sc3c(c2N)c(=O)[nH]c(=O)n3CCc2ccccc2)cc1 the Potency was inconclusive [inhibitor, partial curve]. With CC1(C)S[C@@H]2[C@H](NC(=O)[C@H](C(=O)O)c3ccsc3)C(=O)N2[C@H]1C(=O)O the Potency was “inactive”. With CCOc1ccc(/C=N/NC(=O)c2cc3c(OC)cc(OC)cc3[nH]2)cc1OC the Potency was active: 1.65 µM. In the case of Cc1ccc(O)c(C(CC(=O)N2CCCC2)c2ccccc2)c1 (stereo not given), the Potency was “inactive”. With Cc1c(N(C(=O)CNC(=O)c2ccccc2)C2(C(=O)NC3CCCCC3)CCCCC2)c(=O)n(-c2ccccc2)n1C the Potency was active: 5.86 µM. With COc1ccc(C2=NN(C(=O)c3ccccc3)C(c3ccc(OC)c(OC)c3)C2)cc1OC (stereo not given) the Potency was inconclusive [inhibitor, single point]. With O=C(O)c1ccc(/C=N\Nc2ccc(S(=O)(=O)N3CCOCC3)cc2[N+](=O)[O-])cc1 the Potency was inconclusive [inhibitor, partial curve, poor fit].
